Source: the supplement of paper PMC10441789
Some of the results follow. Antibody binding of pooled human sera (four to six donors per pool; dilution not stated) to peptides of the Trypanosoma cruzi antigen TSSA on microarrays. Quantile-normalised fluorescence in arbitrary units, mean of duplicate arrays; higher = more binding. No active / inactive call. The uninfected pools are read here as the healthy donors of the same country. The strongest signals lie near the top of the scale (about 60,000).

Assays:
Assay in all cases: antibody binding signal (normalised fluorescence) (arbitrary fluorescence units); higher = stronger serum antibody binding to peptide
[1] = tested on: pooled sera of chronic Chagas disease patients, Argentina
Procedure: (§1)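 Microarray of overlapping 15-residue peptides of the four Trypanosoma cruzi TSSA reference variants and 8- to 13-residue peptides of TSSAII 24-62, probed with one serum pool per country.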

[2] = tested on: pooled sera of chronic Chagas disease patients, Bolivia
Procedure: as §1

[3] = tested on: pooled sera of chronic Chagas disease patients, Brazil
Procedure: as §1

[4] = tested on: pooled sera of chronic Chagas disease patients, Colombia
Procedure: as §1

[5] = tested on: pooled sera of chronic Chagas disease patients, Mexico
Procedure: as §1

[6] = tested on: pooled sera of chronic Chagas disease patients, USA
Procedure: as §1

[7] = tested on: pooled sera of uninfected people, Argentina
Procedure: as §1

[8] = tested on: pooled sera of uninfected people, Bolivia
Procedure: as §1

[9] = tested on: pooled sera of uninfected people, Colombia
Procedure: as §1

[10] = tested on: pooled sera of uninfected people, Mexico
Procedure: as §1

[11] = tested on: pooled sera of uninfected people, USA
Procedure: as §1

Row | Sequence | antibody binding signal [1] | antibody binding signal [2] | antibody binding signal [3] | antibody binding signal [4] | antibody binding signal [5] | antibody binding signal [6] | antibody binding signal [7] | antibody binding signal [8] | antibody binding signal [9] | antibody binding signal [10] | antibody binding signal [11]
1 | GGSTSSTPP | 261 | 257 | 276 | 230 | 218 | 298 | 200 | 219 | 137 | 138 | 90.3
2 | QPGASSGEAEA | 421 | 128 | 7870 | 128 | 123 | 88 | 141 | 108 | 91.4 | 90.8 | 73.4
3 | PSGTDKKTAAGEAPS | 4570 | 1290 | 6700 | 4120 | 1500 | 6760 | 593 | 666 | 2040 | 323 | 286
4 | GEAPSQPGASSGE | 8070 | 35800 | 13400 | 111 | 97.5 | 1350 | 337 | 91.4 | 79.3 | 125 | 77.4
5 | NGGSTSSTPP | 233 | 229 | 301 | 187 | 213 | 131 | 258 | 227 | 116 | 133 | 90.9
6 | ANGGSTSSTPPGTDK | 4320 | 2170 | 3060 | 5130 | 1770 | 9060 | 294 | 368 | 252 | 676 | 304
7 | GEAPSQPGASSGEAE | 7950 | 19200 | 10000 | 151 | 84.8 | 444 | 298 | 98.1 | 139 | 93 | 76.9
8 | NGGSTSSTPPSG | 242 | 263 | 426 | 193 | 201 | 151 | 294 | 229 | 102 | 141 | 115
9 | APSQPGASSGEAE | 2270 | 1010 | 9510 | 249 | 349 | 216 | 177 | 121 | 204 | 486 | 100
10 | QPGASSGE | 1370 | 135 | 9110 | 86 | 121 | 103 | 78.4 | 97 | 93.8 | 250 | 105
11 | QPGASSGEA | 1040 | 146 | 8100 | 123 | 128 | 83.8 | 135 | 111 | 84 | 142 | 90.4
12 | EAPSQPGAS | 4780 | 32900 | 1960 | 111 | 80.6 | 318 | 490 | 994 | 572 | 159 | 1230
13 | SSTPPSGTENK | 54200 | 54400 | 54100 | 403 | 8450 | 31600 | 2980 | 630 | 891 | 420 | 506
14 | CTTANGGSTSSTPPG | 564 | 709 | 1770 | 270 | 207 | 248 | 226 | 254 | 675 | 212 | 200
15 | ANGGSTSSTPPSG | 1440 | 4360 | 1280 | 2330 | 1310 | 2350 | 312 | 501 | 189 | 451 | 351
16 | GGSTSSTPPSG | 368 | 180 | 329 | 250 | 212 | 114 | 186 | 240 | 102 | 146 | 127
17 | GGSTSSTPPS | 329 | 292 | 369 | 230 | 245 | 224 | 233 | 214 | 106 | 151 | 80.9
18 | TANGGSTSSTPP | 232 | 305 | 416 | 175 | 340 | 211 | 200 | 188 | 123 | 131 | 129
19 | PSGASSGEAEASSNK | 303 | 1670 | 3700 | 580 | 1240 | 2040 | 236 | 843 | 110 | 2190 | 1780
20 | PGASSGEA | 647 | 157 | 7590 | 150 | 113 | 103 | 135 | 134 | 106 | 88.9 | 98.2
21 | STSSTPPGTDKKTAA | 3750 | 3390 | 8630 | 16600 | 7200 | 13600 | 1340 | 206 | 321 | 2530 | 562
22 | PATGEAPS | 43200 | 51400 | 44500 | 144 | 174 | 28600 | 798 | 117 | 116 | 105 | 111
23 | PSQPGASSGEAEA | 303 | 193 | 8580 | 110 | 174 | 126 | 184 | 118 | 106 | 111 | 99.4
24 | GTENKPAT | 38300 | 12600 | 25200 | 2220 | 3790 | 9430 | 643 | 1450 | 199 | 146 | 219
25 | SACTTANGGSTISTP | 121 | 194 | 228 | 109 | 98.2 | 113 | 417 | 156 | 351 | 110 | 92.9
26 | STSSTPPS | 208 | 260 | 307 | 505 | 145 | 137 | 232 | 184 | 111 | 216 | 118
27 | PSGTEKKAAAGEAPS | 15500 | 2500 | 7700 | 4600 | 4650 | 12100 | 621 | 461 | 201 | 266 | 372
28 | LTACTTANGGSTSST | 189 | 202 | 365 | 208 | 268 | 269 | 97.9 | 162 | 252 | 190 | 109

Row | Sequence | antibody binding signal [1] | antibody binding signal [2] | antibody binding signal [3] | antibody binding signal [4] | antibody binding signal [5] | antibody binding signal [6] | antibody binding signal [7] | antibody binding signal [8] | antibody binding signal [9] | antibody binding signal [10] | antibody binding signal [11]
29 | PGASSGEAE | 906 | 110 | 7910 | 134 | 140 | 111 | 180 | 110 | 220 | 101 | 84.9
30 | EAPSQPGASSGEA | 7990 | 23000 | 8080 | 113 | 96.6 | 221 | 279 | 94.3 | 143 | 129 | 82.7
31 | PGASSGEAEASSNKN | 277 | 2420 | 7400 | 352 | 1040 | 1150 | 194 | 661 | 153 | 1260 | 796
32 | GGSTSSTPPSGTE | 9990 | 265 | 10800 | 153 | 164 | 101 | 162 | 103 | 95.5 | 136 | 63.8
33 | PSQPGASSGEAE | 326 | 166 | 9050 | 126 | 139 | 143 | 225 | 110 | 209 | 164 | 99
34 | TTANGGSTSSTPPGT | 178 | 217 | 649 | 155 | 176 | 147 | 177 | 174 | 310 | 173 | 97.7
35 | TACTTANGGSTSSTP | 482 | 213 | 845 | 395 | 212 | 268 | 175 | 159 | 227 | 190 | 140
36 | TTANGGSTSSTPPSG | 235 | 693 | 543 | 182 | 249 | 171 | 196 | 197 | 302 | 195 | 111
37 | ENKPATGEAPS | 45500 | 47900 | 48100 | 299 | 324 | 42600 | 1010 | 852 | 142 | 200 | 159
38 | TENKPATGEAPS | 47600 | 52900 | 51400 | 277 | 401 | 39200 | 987 | 795 | 135 | 239 | 204
39 | TGEAPSQPGA | 7760 | 29800 | 20200 | 166 | 105 | 3220 | 163 | 139 | 203 | 253 | 162
40 | APSQPGASSGE | 2510 | 3140 | 9060 | 260 | 4980 | 255 | 101 | 110 | 130 | 2630 | 95.5
41 | QPGASSGEAEAS | 227 | 112 | 8270 | 90.5 | 137 | 136 | 213 | 126 | 94.6 | 82.3 | 188
42 | GSTISTPPSGTEKKA | 38800 | 3490 | 33500 | 334 | 13900 | 6890 | 1040 | 380 | 175 | 106 | 154
43 | ISTPPSGTEKKAAAG | 39700 | 3420 | 32400 | 873 | 11800 | 6910 | 1090 | 308 | 121 | 111 | 203
44 | TANGGSTSST | 139 | 189 | 242 | 118 | 254 | 193 | 116 | 164 | 97.4 | 147 | 93.3
45 | SGTENKPAT | 39800 | 27200 | 37400 | 398 | 948 | 8570 | 1980 | 1390 | 197 | 401 | 334
46 | TPPSGTENKPA | 51700 | 45700 | 51900 | 323 | 9930 | 34600 | 7940 | 1520 | 748 | 463 | 950
47 | STPPSGTENKPATGE | 46600 | 48300 | 50100 | 783 | 3420 | 44600 | 9300 | 1260 | 424 | 533 | 569
48 | ISTPPSGTDKKTAAG | 20600 | 5500 | 32900 | 4180 | 22000 | 3940 | 455 | 121 | 125 | 599 | 211
49 | NGGSTSSTPPS | 183 | 277 | 296 | 213 | 186 | 161 | 258 | 229 | 127 | 145 | 144
50 | PPGTDKKTAAGGTPS | 11200 | 735 | 1530 | 30100 | 25600 | 11900 | 246 | 159 | 361 | 939 | 418
51 | NGGSTSSTP | 551 | 285 | 463 | 421 | 169 | 299 | 239 | 198 | 138 | 145 | 93.1
52 | GEAPSPSGASSGEAE | 139 | 134 | 5370 | 105 | 1280 | 165 | 329 | 129 | 188 | 96.9 | 152
53 | TAAGEAPSPSGASSG | 401 | 272 | 920 | 105 | 813 | 214 | 147 | 102 | 107 | 87.5 | 432
54 | PPSGTENKPAT | 50000 | 45800 | 50200 | 2240 | 5650 | 25400 | 5710 | 1960 | 842 | 453 | 1200
55 | APSQPGASSGEA | 2220 | 1540 | 7540 | 265 | 2200 | 180 | 156 | 108 | 117 | 1250 | 118
